Test results taken from patent US20230123178A1 (Hoffmann-La Roche, published 2023).
Each block holds one binder with its values, some of them ahead of it.

Legend:
[1] = target: T1, human 4-1BB on cells (human, UniProt Q07011 24-255); test: cell-based or functional assay
[2] = target: T2, full-length human PD1 on cells (human, UniProt Q15116 25-288); test: flow cytometry on CHO-K1-huPD1 clone 5 cells
T2 construct: also PD1 on primary human PBMC subsets and on Jurkat reporter cells; also called CHO-PD1; CHO-k1-huPD1 clone 5

[3] = target: T1, human 4-1BB on cells; test: flow cytometry on HeLa-huCD137-NFkB-luc clone 26 cells
T1 sequence (Q07011 24-255): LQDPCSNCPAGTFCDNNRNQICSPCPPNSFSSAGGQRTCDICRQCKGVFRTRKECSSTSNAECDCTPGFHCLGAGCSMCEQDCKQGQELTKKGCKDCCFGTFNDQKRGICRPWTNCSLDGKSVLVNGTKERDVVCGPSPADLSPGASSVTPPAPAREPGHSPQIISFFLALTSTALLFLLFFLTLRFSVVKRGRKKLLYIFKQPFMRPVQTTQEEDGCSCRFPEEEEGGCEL

[4] = target: T2, full-length human PD1 on cells; test: flow cytometry, freshly isolated resting human PBMCs (table title), γδ T cells
T2 sequence (Q15116 25-288 limits assumed): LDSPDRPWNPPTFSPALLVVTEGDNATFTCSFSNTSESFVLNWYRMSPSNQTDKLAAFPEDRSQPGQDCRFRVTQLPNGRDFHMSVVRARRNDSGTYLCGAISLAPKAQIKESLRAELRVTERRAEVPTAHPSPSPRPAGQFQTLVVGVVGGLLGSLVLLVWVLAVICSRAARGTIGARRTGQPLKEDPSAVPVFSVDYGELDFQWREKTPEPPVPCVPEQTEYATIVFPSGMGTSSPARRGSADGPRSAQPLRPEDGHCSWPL

[5] = target: T2, full-length human PD1 on cells; test: flow cytometry, freshly isolated resting human PBMCs (table title), CD4 T cells
[6] = target: T2, full-length human PD1 on cells; test: flow cytometry, freshly isolated resting human PBMCs (table title), CD8 T cells

EC50 of NFκB-activation-induced Luciferase activity-curves, with CHO-k1-huPD1 clone 5 [1]: 0.004 nM
EC50 [2]: 1.73 nM
EC50 [3]: 0.14 nM
EC50 [4]: 0.34 nM
EC50 [5]: 0.13 nM
EC50 [6]: 0.21 nM
B1: monovalent PD1(0314)-targeted human 4-1BB ligand (71-254) containing Fc (kih) fusion molecule Construct 7.1 (Fc fusion)
chain 1: [about 200 residues not given here]GGGGSGGGGSREGPELSPDDPAGLLDLRQGMFAQLVAQNVLLIDGPLSWYSDPGLAGVSLTGGLSYKEDTKELVVAKAGVYYVFFQLELRRVVAGEGSGSVSLALHLQPLRSAAGAAALALTVDLPPASSEARNSAFGFQGRLLHLSAGQRLGVHLHTEARARHAWQLTQGATVLGLFRVTPEIPAGLPSPRSEGGGGSGGGGSRTVAAPSVFIFPPSDRKLKSGTASVVCLLNNFYPREAKVQWKVDNALQSGNSQESVTEQDSKDSTYSLSSTLTLSKADYEKHKVYACEVTHQGLSSPVTKSFNRGE[human IgG1 Fc with changes not given here]
chain 2: [about 200 residues not given here][about 120 residues not given here]
heavy: EVQLLESGGGLVQPGGSLRLSCAASGFSFSSYTMSWVRQAPGKGLEWVATISGGGRDIYYPDSVKGRFTISRDNSKNTLYLQMNSLRAEDTAVYYCVLLTGRVYFALDSWGQGTLVTVSSASTKGPSVFPLAPSSKSTSGGTAALGCLVKDYFPEPVTVSWNSGALTSGVHTFPAVLQSSGLYSLSSVVTVPSSSLGTQTYICNVNHKPSNTKVDKKVEPKSCDKTHTCPPCPAPEAAGGPSVFLFPPKPKDTLMISRTPEVTCVVVDVSHEDPEVKFNWYVDGVEVHNAKTKPREEQYNSTYRVVSVLTVLHQDWLNGKEYKCKVSNKALGAPIEKTISKAKGQPREPQVCTLPPSRDELTKNQVSLSCAVKGFYPSDIAVEWESNGQPENNYKTTPPVLDSDGSFFLVSKLTVDKSRWQQGNVFSCSVMHEALHNHYTQKSLSLSPGK
light: EIVLTQSPATLSLSPGERATLSCRASESVDTSDNSFIHWYQQKPGQSPRLLIYRSSTLESGIPARFSGSGSGTDFTLTISSLEPEDFAVYYCQQNYDVPWTFGQGTKVEIKRTVAAPSVFIFPPSDEQLKSGTASVVCLLNNFYPREAKVQWKVDNALQSGNSQESVTEQDSKDSTYSLSSTLTLSKADYEKHKVYACEVTHQGLSSPVTKSFNRGEC
notes: one PD1 Fab and an assembled trimeric 4-1BB ligand; CH1-CL crossover with charged residues; human IgG1 Fc knob-into-hole, P329G LALA

EC50 of NFκB-activation-induced Luciferase activity-curves, with CHO-k1-huPD1 clone 5 [1]: 0.004 nM
EC50 [2]: 1.43 nM
EC50 [3]: 0.28 nM
EC50 [4]: 0.13 nM
EC50 [5]: 0.11 nM
EC50 [6]: 0.17 nM
B2: bivalent PD1(0314)-targeted human 4-1BB ligand (71-254) containing Fc (kih) fusion molecule Construct 7.3 (Fc fusion)
heavy 1: EVQLLESGGGLVQPGGSLRLSCAASGFSFSSYTMSWVRQAPGKGLEWVATISGGGRDIYYPDSVKGRFTISRDNSKNTLYLQMNSLRAEDTAVYYCVLLTGRVYFALDSWGQGTLVTVSSASTKGPSVFPLAPSSKSTSGGTAALGCLVKDYFPEPVTVSWNSGALTSGVHTFPAVLQSSGLYSLSSVVTVPSSSLGTQTYICNVNHKPSNTKVDKKVEPKSCDKTHTCPPCPAPEAAGGPSVFLFPPKPKDTLMISRTPEVTCVVVDVSHEDPEVKFNWYVDGVEVHNAKTKPREEQYNSTYRVVSVLTVLHQDWLNGKEYKCKVSNKALGAPIEKTISKAKGQPREPQVCTLPPSRDELTKNQVSLSCAVKGFYPSDIAVEWESNGQPENNYKTTPPVLDSDGSFFLVSKLTVDKSRWQQGNVFSCSVMHEALHNHYTQKSLSLSPGGGGGSGGGGSREGPELSPDDPAGLLDLRQGMFAQLVAQNVLLIDGPLSWYSDPGLAGVSLTGGLSYKEDTKELVVAKAGVYYVFFQLELRRVVAGEGSGSVSLALHLQPLRSAAGAAALALTVDLPPASSEARNSAFGFQGRLLHLSAGQRLGVHLHTEARARHAWQLTQGATVLGLFRVTPEIPAGLPSPRSEGGGGSGGGGSREGPELSPDDPAGLLDLRQGMFAQLVAQNVLLIDGPLSWYSDPGLAGVSLTGGLSYKEDTKELVVAKAGVYYVFFQLELRRVVAGEGSGSVSLALHLQPLRSAAGAAALALTVDLPPASSEARNSAFGFQGRLLHLSAGQRLGVHLHTEARARHAWQLTQGATVLGLFRVTPEIPAGLPSPRSE
heavy 2: EVQLLESGGGLVQPGGSLRLSCAASGFSFSSYTMSWVRQAPGKGLEWVATISGGGRDIYYPDSVKGRFTISRDNSKNTLYLQMNSLRAEDTAVYYCVLLTGRVYFALDSWGQGTLVTVSSASTKGPSVFPLAPSSKSTSGGTAALGCLVKDYFPEPVTVSWNSGALTSGVHTFPAVLQSSGLYSLSSVVTVPSSSLGTQTYICNVNHKPSNTKVDKKV[human IgG1 Fc with changes not given here]GGGGSGGGGSREGPELSPDDPAGLLDLRQGMFAQLVAQNVLLIDGPLSWYSDPGLAGVSLTGGLSYKEDTKELVVAKAGVYYVFFQLELRRVVAGEGSGSVSLALHLQPLRSAAGAAALALTVDLPPASSEARNSAFGFQGRLLHLSAGQRLGVHLHTEARARHAWQLTQGATVLGLFRVTPEIPAGLPSPRSE
light: B1 light
notes: two PD1 Fabs, dimeric and monomeric 4-1BB ligand fused at the C-terminus of each heavy chain; P329G LALA, knob-into-hole

EC50 of NFκB-activation-induced Luciferase activity-curves, with CHO-k1-huPD1 clone 5 [1]: 0.006 nM
EC50 [2]: 3.33 nM
EC50 [3]: 0.36 nM
EC50 [4]: 0.42 nM
EC50 [5]: 0.28 nM
EC50 [6]: 0.38 nM
B3: monovalent PD1(0314)-targeted human 4-1BB ligand (71-248) containing Fc (kih) fusion molecule Construct 7.5 (Fc fusion)
chain 1: REGPELSPDDPAGLLDLRQGMFAQLVAQNVLLIDGPLSWYSDPGLAGVSLTGGLSYKEDTKELVVAKAGVYYVFFQLELRRVVAGEGSGSVSLALHLQPLRSAAGAAALALTVDLPPASSEARNSAFGFQGRLLHLSAGQRLGVHLHTEARARHAWQLTQGATVLGLFRVTPEIPAGLGGGGSGGGGSREGPELSPDDPAGLLDLRQGMFAQLVAQNVLLIDGPLSWYSDPGLAGVSLTGGLSYKEDTKELVVAKAGVYYVFFQLELRRVVAGEGSGSVSLALHLQPLRSAAGAAALALTVDLPPASSEARNSAFGFQGRLLHLSAGQRLGVHLHTEARARHAWQLTQGATVLGLFRVTPEIPAGLGGGGSGGGGSRTVAAPSVFIFPPSDEQLKSGTASVVCLLNNFYPREAKVQWKVDNALQSGNSQESVTEQDSKDSTYSLSSTLTLSKADYEKHKVYACEVTHQGLSSPVTKSFNRGE[human IgG1 Fc with changes not given here]
chain 2: REGPELSPDDPAGLLDLRQGMFAQLVAQNVLLIDGPLSWYSDPGLAGVSLTGGLSYKEDTKELVVAKAGVYYVFFQLELRRVVAGEGSGSVSLALHLQPLRSAAGAAALALTVDLPPASSEARNSAFGFQGRLLHLSAGQRLGVHLHTEARARHAWQLTQGATVLGLFRVTPEIPAGLGGGGSGGGGSASTKGPSVFPLAPSSKSTSGGTAALGCLVKDYFPEPVTVSWNSGALTSGVHTFPAVLQSSGLYSLSSVVTVPSSSLGTQTYICNVNHKPSNTKVDKKVEPKSC
heavy: B1 heavy
light: B1 light
notes: one PD1 Fab and an assembled trimeric 4-1BB ligand; CH1-CL crossover without charged residues; P329G LALA, knob-into-hole
